# Laboratory results as given in the supplement of paper PMC3334620.
# Over roughly 33,000 sequences, “E-score (-0.5 to 0.5)” has its median near -0.011; the highest 2% begin near 0.28. The list shows a part of the results.
# Target: T1, Gcr1 (UniProt P07261)
# T1 sequence: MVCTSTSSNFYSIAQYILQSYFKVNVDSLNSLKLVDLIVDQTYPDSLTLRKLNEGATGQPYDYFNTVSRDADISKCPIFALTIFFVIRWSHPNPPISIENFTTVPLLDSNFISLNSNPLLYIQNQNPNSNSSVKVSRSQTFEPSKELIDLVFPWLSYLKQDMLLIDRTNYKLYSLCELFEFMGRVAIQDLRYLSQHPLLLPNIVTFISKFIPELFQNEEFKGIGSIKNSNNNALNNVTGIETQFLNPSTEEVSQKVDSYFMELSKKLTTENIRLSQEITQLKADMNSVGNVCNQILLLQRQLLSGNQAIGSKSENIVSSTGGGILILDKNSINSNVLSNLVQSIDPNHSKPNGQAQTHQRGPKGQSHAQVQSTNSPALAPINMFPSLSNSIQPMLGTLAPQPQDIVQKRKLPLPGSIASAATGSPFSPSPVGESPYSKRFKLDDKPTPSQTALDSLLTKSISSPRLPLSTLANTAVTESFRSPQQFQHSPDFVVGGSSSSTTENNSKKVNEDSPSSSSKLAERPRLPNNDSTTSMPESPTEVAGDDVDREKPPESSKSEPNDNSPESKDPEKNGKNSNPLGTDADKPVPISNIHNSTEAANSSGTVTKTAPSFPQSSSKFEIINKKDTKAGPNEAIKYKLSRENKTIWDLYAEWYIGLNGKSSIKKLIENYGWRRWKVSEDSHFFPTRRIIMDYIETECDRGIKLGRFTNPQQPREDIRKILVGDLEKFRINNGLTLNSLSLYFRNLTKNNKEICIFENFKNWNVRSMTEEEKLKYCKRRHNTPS
# Assay: PBM E-score (8-mer binding enrichment) (E-score (-0.5 to 0.5)); higher = stronger / more preferred TF binding; most listed sequences are background and not binding sites
# Conditions: protein concentration: 100 nM; construct: GST-full length
# Procedure, shortened: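 The E-score, a modified Wilcoxon-Mann-Whitney statistic, was computed by the Universal PBM Analysis Suite for every ungapped eight-base word pooled with its reverse complement. Scans behind it were normalised with masliner after bound GST-tagged yeast transcription factors were detected with fluorescent anti-GST. The proteins, at about 100-200 nM, had been applied to universal all-10-mer Agilent arrays made double-stranded by primer extension.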
row,Sequence,PBM E-score
1,CTCAGACA,0.0236
2,AATCATTG,-0.182
3,CCGACCTC,-0.235
4,TGTGGGAA,0.093
5,ATACGCAC,0.163
6,ATCGTCCA,0.0357
7,GGCGTCGA,0.0576
8,AGCCTGAT,0.0314
9,GCCCCGAC,-0.105
10,CGTACACC,-0.0647
11,GGCTAAGA,-0.11
12,AACCAGTT,0.176
13,AGCGCCGG,-0.00207
14,AGACATTG,-0.0678
15,ACGGAGTA,-0.103
16,TACTGAAA,0.0192
17,CAGGCTCA,0.0633
18,GGTGATCA,0.0761
19,AAGCTCCC,0.195
20,GGTTATGA,0.0116
21,AGATGTCA,-0.00318
22,ACGTACAC,-0.0123
23,TATTATAA,0.174
24,AGCCTCGG,-0.275

row,Sequence,PBM E-score
1,ACGCGCGT,0.123
2,AAAGGGCT,0.0327
3,ACAGTTTC,0.127
4,ATGTCGGC,0.0418
5,TACCAAGA,-0.00516
6,AACTGCCC,-0.0122
7,CCCCAGCA,-0.0483
8,GCAGTTGA,0.0814
9,AATAGTCT,-0.146
10,AGGCCACT,0.0765
11,TCGCAGAA,-0.179
12,CCACAGGA,0.171
13,AAGAGCCC,0.0779
14,TACACCAA,0.00272
15,CCAAAACG,0.115
16,ATTGTTGC,-0.0835
17,ACTTCAAT,0.19
18,AGTCCAAA,-0.0142
19,AAGCGCCA,0.276
20,CCTTTTCA,-0.164
21,ATTCCCTA,0.11
22,CACCCGAC,-0.097
23,CTGGCGTC,0.279
24,CCACGAAA,0.0563

row,Sequence,PBM E-score
1,CCCTCCCG,-0.181
2,GAGCCATC,0.0178
3,AAAGCGCA,-0.207
4,CTAAAATA,0.074
5,AAATAATC,0.0178
6,ACGCGTTC,0.0993
7,CGACTCCG,-0.191
8,TGGGCAAA,-0.213
9,ATGCATAC,-0.0539
10,CTTCCCCC,-0.138
11,ACTCGGCC,-0.121
12,AACTCCCG,0.0309
13,TTACTCAA,-0.23
14,CATGCCAA,-0.0505
15,ATGAAAGA,0.0426
16,GTTAGTAA,0.00996
17,AAGACTTG,-0.187
18,AGTTGCAG,0.0476
19,ATGTAGTG,0.119
20,GTTATAAA,0.0309
21,CTCACAGA,-0.162
22,CCGGACGC,0.31
23,ACAAAACA,-0.00423
24,AGCCATAG,-0.192

row,Sequence,PBM E-score
1,AGTGGTGA,0.0333
2,CGATTGCG,-0.0492
3,CCTTTACC,-0.0637
4,ACTTGATA,-0.0538
5,CTGCGCCC,-0.116
6,AAGCGATA,-0.0205
7,CGGACGGC,-0.0351
8,AATGCTAG,0.0693
9,ATGTGGCA,0.104
10,AGTTCGCC,-0.0721
11,AAGTAATG,0.105
12,CGCTACAA,0.0428
13,ACCTTATG,0.0442
14,GTCAATAA,-0.1
15,TATGATGA,-0.126
16,CAACTCTA,0.0646
17,CGGAGATC,-0.0467
18,CTGAGTGC,-0.217
19,CTACTAAA,0.239
20,CTTGGTTA,-0.0469
21,GACCCGTA,0.00607
22,AGATCTAC,0.0499
